Measured values from US20220363757A1.

Assays:
[1] = biological target: cynomolgus LAG-3 on transiently transfected CHO-S cells (cynomolgus); experiment: flow cytometry on transfected CHO-S cells
[2] = biological target: cynomolgus LAG-3 ECD human IgG1 Fc fusion (cynomolgus; human), P18627; experiment: SPR, Fab over captured LAG-3 ECD-Fc
cynomolgus LAG-3 ECD human IgG1 Fc fusion (cynomolgus; human), P18627, sequence (P18627 other isoform, or with tags, fused parts or gaps, form in doubt): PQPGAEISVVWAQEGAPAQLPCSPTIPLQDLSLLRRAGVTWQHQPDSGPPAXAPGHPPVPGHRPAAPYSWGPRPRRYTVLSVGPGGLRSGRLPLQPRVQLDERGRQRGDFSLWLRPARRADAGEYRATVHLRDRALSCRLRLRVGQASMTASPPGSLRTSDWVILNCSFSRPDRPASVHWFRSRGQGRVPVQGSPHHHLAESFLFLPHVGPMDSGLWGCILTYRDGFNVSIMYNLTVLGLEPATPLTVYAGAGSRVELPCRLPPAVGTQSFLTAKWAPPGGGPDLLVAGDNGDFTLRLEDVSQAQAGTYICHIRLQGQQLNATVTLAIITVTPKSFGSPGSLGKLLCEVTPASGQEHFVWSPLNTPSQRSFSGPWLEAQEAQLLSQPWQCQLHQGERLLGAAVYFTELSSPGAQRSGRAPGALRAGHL

B1: antibody 15572 (antibody, human IgG1, kappa)
heavy: QLQLQESGPGLVKPSETLSLTCTVSGDSISSSSYYWGWIRQPPGKGLEWIGSIFYSGNTYYNPSLKSRVTISVDTSKNQFSLKLSSVTAADTAVYYCAREDDFLTDYYGAFDIWGQGTMVTVSSASTKGPSVFPLAPSSKSTSGGTAALGCLVKDYFPEPVTVSWNSGALTSGVHTFPAVLQSSGLYSLSSVVTVPSSSLGTQTYICNVNHKPSNTKVDKRV[human IgG1 Fc with changes not shown]
light: [about 100 residues not shown][about 120 residues not shown]
- EC50 [1]: 0.06 nM

B2: Fab fragment of antibody 15572 (Fab, not shown: a dimerising Fc or GST)
heavy: QLQLQESGPGLVKPSETLSLTCTVSGDSISSSSYYWGWIRQPPGKGLEWIGSIFYSGNTYYNPSLKSRVTISVDTSKNQFSLKLSSVTAADTAVYYCAREDDFLTDYYGAFDIWGQGTMVTVSS
light: [about 100 residues not shown][about 120 residues not shown]
- Kd [2]: 100 nM
- koff [2]: 0.004 s⁻¹
- kon [2]: 40000 M⁻¹ s⁻¹
